Test results taken from publication PMC6919601, “Identification of Plasmodium dipeptidyl aminopeptidase allosteric inhibitors by high throughput screening” (PLoS ONE, 2019).
About 230 (0.21%) of roughly 110,000 compounds showed an effect of 50% or more. Some of the results follow.

Molecular target: DPAP1 (Plasmodium falciparum, UniProt Q8IIJ9)
Test: primary screen, percent inhibition; read by cleavage of a fluorogenic dipeptide substrate; higher = more effect of the substance
Design: species or system P. falciparum D10 trophozoite lysates; single well
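Also: 30 min substrate incubation versus DMSO and 10 µM JCP410 controls.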

Sequence of DPAP1 (Q8IIJ9 whole entry, looked up): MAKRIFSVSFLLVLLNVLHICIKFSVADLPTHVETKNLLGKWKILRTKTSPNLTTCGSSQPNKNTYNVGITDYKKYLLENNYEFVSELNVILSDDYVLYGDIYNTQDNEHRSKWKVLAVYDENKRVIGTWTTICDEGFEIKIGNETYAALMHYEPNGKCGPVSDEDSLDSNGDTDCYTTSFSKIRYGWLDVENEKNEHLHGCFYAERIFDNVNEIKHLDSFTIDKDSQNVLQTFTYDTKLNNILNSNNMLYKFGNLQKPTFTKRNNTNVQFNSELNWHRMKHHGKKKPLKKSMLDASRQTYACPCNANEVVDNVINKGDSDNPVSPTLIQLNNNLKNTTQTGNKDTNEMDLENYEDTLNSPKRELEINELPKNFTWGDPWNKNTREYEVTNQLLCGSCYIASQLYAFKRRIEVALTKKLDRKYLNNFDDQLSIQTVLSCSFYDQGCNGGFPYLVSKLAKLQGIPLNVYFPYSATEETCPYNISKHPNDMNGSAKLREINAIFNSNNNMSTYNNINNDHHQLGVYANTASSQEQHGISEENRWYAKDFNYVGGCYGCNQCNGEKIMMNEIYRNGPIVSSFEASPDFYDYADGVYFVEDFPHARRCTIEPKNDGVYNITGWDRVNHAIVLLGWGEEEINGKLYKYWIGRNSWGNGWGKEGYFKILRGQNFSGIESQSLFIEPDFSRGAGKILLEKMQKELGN

| SMILES | % Inhibition @ 10 uM [%] |
| --- | --- |
| Cc1oc(-c2cccs2)nc1CSCC(=O)NCCC1=CCCCC1 | 0.689 |
| O=C(Nc1ccc(Cl)cn1)c1cc2c(s1)-c1ccccc1OC2 | -10.5 |
| Cc1ccc(-c2cc(NC(=O)c3ccc(F)cc3)on2)cc1 | -5.08 |
| Cc1ccc(CNC(=O)C2CCN(c3nnc(N4CCCC4=O)s3)CC2)cc1 | 0.623 |
| CS(=O)(=O)c1ccc2nc(NC(=O)CN3CCN(Cc4ccccc4)CC3)sc2c1 | 7.68 |
| CC(C)(C)C1CC=C2C(C#N)=C(N)C(C#N)(C#N)C(c3ccccc3)C2C1 (stereo not shown) | -1.68 |
| COc1cccc(C2(c3ccc(O)cc3)CCCC2)c1 | 6.19 |
| COc1cccc(-c2nc(SCC(=O)Nc3sc4c(c3C#N)CCCC4)nc(O)c2C#N)c1 | 5.41 |
| CCOc1ccc(C(=O)Nc2nc3c(s2)CCc2ccccc2-3)cc1 | 4.35 |
| Oc1cnnc(NCc2ccco2)n1 | 5.85 |
| COc1ccc(-c2cc(C(=O)N3C(C)CCCC3C)no2)cc1OC (stereo not shown) | 9.67 |
| Cc1cccc(NC(=O)CN2C(=O)N/C(=C/c3cccn3-c3ccccc3)C2=O)c1 | -3.84 |
| CC(C)(C)c1ccc(OCCCC(=O)Nc2nccs2)cc1 | -6.86 |
| CCCC1CN2CCC3=C(CCC3)C2(C)C1 (stereo not shown) | -2.9 |
| CC1=NC(=S)C(C#N)C(C)=C1Cc1ccccc1 (stereo not shown) | 46.9 |
| CC(C)CC(=O)Nc1nonc1-c1ccc(Cl)cc1 | 0.635 |
| Cc1ccc(/C=C2/SC(Nc3cccc(C)c3C)=NC2=O)o1 | 2.6 |
| CC1(C)CC2(CC(c3ccccc3Cl)Oc3cc(O)ccc32)NC(=S)N1 (stereo not shown) | 2.8 |
| CN(C)c1nc(-c2ccccc2O)nc2ccccc12 | -1.48 |
| CSc1ncc(C(=O)NC2CCN(Cc3ccccc3)CC2)c(-c2ccccc2)n1 | 5.4 |
| CCCCNc1ccncc1S(=O)(=O)NC(=O)NC(C)C | 0.245 |
| CCOC(=O)c1c(C)[nH]c(C)c1S(=O)(=O)N(C)CC(=O)NC1CCCCCC1 | -5.12 |
| Cc1ccc(C)c(/N=C2/SC(CC(=O)Nc3ccc(C(=O)O)cc3)C(=O)N2C)c1 (stereo not shown) | 4.84 |
| CCN(CC)C(=O)CSc1nc(-c2ccc(OC)cc2)nc2c1Cc1c(CO)cnc(C)c1O2 | -3.15 |
| O=c1ccc2cc(S(=O)(=O)NCc3ccccc3)ccc2o1 | -1.72 |

| SMILES | % Inhibition @ 10 uM [%] |
| --- | --- |
| COCCNC(=O)c1ccc(CS(=O)c2cccc(C)c2)o1 (stereo not shown) | 1.77 |
| Cc1cc(C)c(C(=O)/C=C/c2ccccc2Cl)c(O)n1 | 4.57 |
| O=C(COc1ccc(/C=C2/SC(=O)N(CC(=O)N3CCOCC3)C2=O)cc1)N1CCOCC1 | 2.65 |
| Cc1cc(C)n(CCc2nc3c4ccccc4nc(SCc4cccc(F)c4)n3n2)n1 | 0.4 |
| O=C(CC(c1ccccc1)c1cc(Cl)ccc1O)N1CCCCC1 (stereo not shown) | 0.843 |
| CCS(=O)(=O)c1ncc(Cl)c(C(=O)N(Cc2ccc(Cl)cc2)Cc2ccco2)n1 | 2.19 |
| CCSC1=C(C#N)C(c2ccccc2OC)CC(=O)N1 (stereo not shown) | 2.67 |
| Cc1nn(CC(=O)NCCC2=CCCCC2)c(=O)c2cccn12 | 0.697 |
| CCc1nc2cccnc2n1-c1ccc(CC(=O)NCCOC)cc1 | -4.03 |
| COc1ccc2[nH]c3c(=O)n(CCCCCC(=O)NCc4ccc(F)cc4)c(=S)[nH]c3c2c1 | -2.16 |
| Cc1cccc(NC(=O)CCc2nnc3ccc(N4CCN(C)CC4)nn23)n1 | 4.8 |
| Cc1c(C(=O)N2CCN(C)CC2)oc2c1-c1nn(Cc3ccc(Cl)cc3)cc1CC2 | -9.66 |
| CCCCOc1ccc(N2C(=O)c3ccccc3C2=O)cc1 | -0.28 |
| CC1CCc2nn(CC(=O)NCCC3=CCCCC3)cc2C1 (stereo not shown) | 3.4 |
| CCC(=O)Nc1sc(C(=O)N(CC)CC)c(C)c1C(N)=O | 22.7 |
| CSc1nc(-c2ccccc2)nc(SC)c1C(C)=O | -0.351 |
| COc1cccc2cc(C(=O)N3CCC(C)CC3)c(=O)oc12 | 5.88 |
| COc1ccc(CC(=O)Nc2c(C(=O)NC(C)(C)C)oc3ccccc23)cc1 | 1.06 |
| Cc1cccc(S(=O)Cc2ccc(C(=O)N3CCN(C(=O)c4ccco4)CC3)o2)c1 (stereo not shown) | 1.77 |
| CCN1CCN(CCNC(=O)CS(=O)(=O)Cc2nc(-c3ccc(C)cc3)oc2C)CC1 | -2.11 |
| CCOc1ccc(CCNC(=O)c2cc3oc4ccccc4c3n2C)cc1OCC | -0.447 |
| CN(C)CN1C(=O)S/C(=C\c2ccc3c(c2)OCO3)C1=O | 1.27 |
| Cc1cc(C)c(O)c(NC(=O)COc2cccc(C)c2C)c1 | -2.74 |
| O=C1CC(NCCc2ccccc2)C(=O)N1c1ccccc1C(F)(F)F (stereo not shown) | -7.81 |
